We go through 107 compounds from PubChem BioAssay AID488969 (Vanderbilt High Throughput Screening Facility, 2010).

Over roughly 110,000 compounds, “z-score” has its median near -0.1; the highest 2% begin near 2. The list shows a part of the results. Active and inactive are the calls of the source.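 How the source made its calls: active means z-score in the third read window above 3 or below -3; inactive means the rest.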

The assay concerns the target Metabotropic glutamate receptor 8 (Rattus norvegicus) (UniProt P70579). The assay can be described thus: rat mGluR8 modulators via GIRK flux, primary screen, cell-based, thallium flux, HTS (AID 488969). The settings on record: HEK293 rat mGluR8, GIRK (G protein-gated inwardly rectifying potassium channel) thallium flux, FluoZin2; at 10 µM; stronger effect = higher value; submaximal glutamate (EC20) added with thallium.
UniProt P70579, sequence (P70579 whole entry, looked up): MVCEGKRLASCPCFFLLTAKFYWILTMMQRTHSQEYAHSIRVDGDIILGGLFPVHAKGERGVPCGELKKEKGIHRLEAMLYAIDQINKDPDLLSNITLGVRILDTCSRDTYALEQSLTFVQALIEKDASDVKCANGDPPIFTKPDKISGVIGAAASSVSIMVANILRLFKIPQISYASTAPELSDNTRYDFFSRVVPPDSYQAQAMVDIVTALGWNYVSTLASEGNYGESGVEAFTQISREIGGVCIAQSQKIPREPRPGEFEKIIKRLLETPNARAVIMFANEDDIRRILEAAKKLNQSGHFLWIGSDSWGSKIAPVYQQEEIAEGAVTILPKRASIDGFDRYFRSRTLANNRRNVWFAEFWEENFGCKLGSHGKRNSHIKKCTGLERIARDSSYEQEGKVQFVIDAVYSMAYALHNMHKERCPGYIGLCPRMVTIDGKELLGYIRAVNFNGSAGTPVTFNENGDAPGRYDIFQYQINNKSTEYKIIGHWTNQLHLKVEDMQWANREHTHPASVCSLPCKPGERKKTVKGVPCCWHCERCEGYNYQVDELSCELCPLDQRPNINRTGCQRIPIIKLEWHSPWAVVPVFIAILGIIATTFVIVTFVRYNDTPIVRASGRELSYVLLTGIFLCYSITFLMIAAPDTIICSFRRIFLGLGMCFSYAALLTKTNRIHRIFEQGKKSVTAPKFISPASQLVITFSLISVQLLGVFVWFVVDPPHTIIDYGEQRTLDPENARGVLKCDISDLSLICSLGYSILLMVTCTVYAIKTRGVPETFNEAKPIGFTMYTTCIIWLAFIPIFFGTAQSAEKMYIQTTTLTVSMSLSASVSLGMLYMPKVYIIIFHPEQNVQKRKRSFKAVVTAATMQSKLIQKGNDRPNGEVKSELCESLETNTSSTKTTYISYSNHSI
In the case of `Cc1cc(N2C(=O)CC(C(C)c3ccccc3)C2=O)no1` (configuration not stated), the z-score is -0.661.

Turning to `O=S(=O)(Nc1nc2ccccc2nc1-[n+]1ccccc1)c1ccc(Cl)cc1`, the z-score is 0.161.

For the compound `Cc1cc(S(=O)(=O)N(Cc2ccc(C(C)C)cc2)CC2CCCO2)ccc1-n1cnnn1` (configuration not stated), the z-score was found to be 1.01.

For `COc1cccc(-c2cc(C(=O)N3CCCc4ccccc43)no2)c1`, the z-score was -0.419.

In turn, `O=C(CSc1nc2ccccc2c(=O)n1NC(=O)Cc1ccccc1)NCc1ccccc1` had a z-score of 0.877.

`COc1ccc(C(=O)CSc2nnc(Cn3cnc4ccccc43)o2)cc1` registered a z-score of 1.52.

Consider `CC1=CCC2C(=O)N(c3ccc(C)cc3)C(=O)C2C1` (configuration not stated), for which the z-score is 0.0494.

For `O=C(CCn1nc(-c2ccccc2)c2ccccc2c1=O)N1CCN(c2ccccc2)CC1`, the z-score is -0.421.

Turning to `CCNc1nc(Cl)nc(NCCOc2ccc(C)cc2)n1`, the z-score was -0.221.

`COc1cccc(/C=N/N2CCOCC2)c1O`: the z-score was -0.354.

As to `CN(CC(=O)Nc1ccc(F)c(F)c1F)C(=O)/C=C/c1ccc(Cl)cc1`, the z-score is -0.265.

For the compound `Cc1cc(C)c2cc(CN(CCO)C(=O)Nc3ccc(F)cc3)c(=O)[nH]c2c1`, the z-score was -0.834.

As for `CCC(CC)C(=O)Nc1cccc(C(=O)Nc2ccc3c(c2)OCO3)c1`, the z-score was -0.631.

Consider `O=C(NCc1ccccn1)c1ccc(NC(=O)c2ccco2)cc1`, for which the z-score was 0.138.

Consider `Cc1ccc(C(=O)NNC(=O)CCC(=O)Nc2cc(C)on2)cc1`, for which the z-score was -0.0969.

Take `CCOC(=O)c1cn(CC(=O)Nc2ccc3c(c2)OCCO3)nn1`: the z-score is 0.293.

Take `CCCS(=O)(=O)c1nc(S(=O)(=O)c2ccc(C)cc2)c(NCc2ccc3c(c2)OCO3)s1`: the z-score was -0.1.

As for `Cc1cc(-c2nnc(-c3ccccc3)c(-c3ccccc3)n2)c(C)o1`, the z-score was -0.159.

In the case of `CCCCc1ccc(S(=O)(=O)NCCc2ccncc2)cc1`, the z-score was 0.298.

On to `Cc1nc2cc(NC(=O)NCc3ccco3)ccc2o1`, for which the z-score was -0.15.

`CC1(C)CC(=O)C=C(Nc2ccc(F)cc2)C1`: the z-score was determined as 0.643.

As to `O=C(Cn1c(NCCO)nc2ccccc21)c1ccc(Cl)cc1`, the z-score was -0.664.

For `C=CCNc1nc(Nc2ccc(OC)cc2)nc(OC)n1`, the z-score is -0.295.

For `CCC(=O)c1ccc(OCC(O)CNCc2ccc(F)cc2)cc1` (configuration not stated), the z-score was -0.0859.

On to `CC1(C)NC(=O)N(CCCCOc2ccc(Cl)cc2)C1=O`, for which the z-score was -0.367.

Consider `CCOC(=O)c1ccc(N2NC(=O)/C(=C/c3ccc(OC(=O)c4ccco4)c(OC)c3)C2=O)cc1`, for which the z-score was -0.682.

For the compound `COC(=O)c1cc(NC(=O)CN(c2ccc(OC)cc2)S(=O)(=O)c2ccc(F)cc2)ccc1Cl`, the z-score is -0.143.

With `CCOC(=O)C1=C(C)NC(=O)NC1c1c(O)ccc2ccccc12` (configuration not stated), the z-score is -0.111.

`Cc1ccc(S(=O)(=O)NC(=O)NCc2ccc(Cl)cc2)cc1` showed a z-score of 0.0562.

Compound `CCn1c(O)c(C=NCc2cccs2)c(=O)n(CC)c1=S` had a z-score of 0.0793.

Take `COc1cc(/C=c2\sc3nc(=O)c(-c4ccccc4)nn3c2=O)ccc1OCCC(C)C`: the z-score came to 0.00435.

With `Cc1nc2ccccc2nc1N1CCC(C)CC1`, the z-score is -0.18.

`CCOc1ccc(-n2c(Cc3cc(=O)[nH]c(=O)[nH]3)nnc2SCC(=O)OC)cc1` had a z-score of 0.0852.

In turn, `O=C(Nc1ncc(Cc2cccc(Cl)c2Cl)s1)c1ccc([N+](=O)[O-])cc1` came in with a z-score of 0.0306.

On to `O=c1c2ccccc2nc2n1C(CSCc1ccccc1)CS2` (configuration not stated), for which the z-score is -0.375.

On to `CC(C)c1ccc(C(O)c2cnc(C(C)C)n2C)cc1` (configuration not stated), for which the z-score was -0.127.

As to `Cc1ccc2cc(COC(=O)c3ccco3)c(=O)[nH]c2c1`, the z-score is -0.25.

Regarding `CC(C)Cn1c(N)c(C(=O)COC(=O)c2ccc3c(c2)OCCO3)c(=O)n(C)c1=O`, the z-score is -0.2.

As to `O=C(O)COc1ccc(-c2nnn(Cc3ccccc3F)n2)cc1`, the z-score was 1.3.

In the case of `Cc1cc(C)n(-c2nnc(C)n2/N=C/c2ccccc2F)n1`, the z-score is -0.35.

In the case of `O=C(O)c1cccc(CSc2ncccn2)c1`, the z-score was -0.149.

With `CCOC(=O)c1sc(N2C(=O)C(O)=C(C(=O)c3ccco3)C2c2ccccc2)nc1C` (configuration not stated), the z-score was -2.58.

With `Cc1ccc(-c2nn(CCC#N)cc2C=C(C#N)C#N)cc1`, the z-score was determined as 0.287.

`CCOC(=O)c1sc2nc(N3CCOCC3)c3c(c2c1N)CC(C)(C)N(C)C3`: the z-score was found to be 0.887.

With `CCOC(=O)c1c(C)[nH]c(C(=O)COC(=O)C2CC2C)c1C` (configuration not stated), the z-score is -0.868.

Take `Cc1ccc(C)c2nc(SCC(=O)NCc3cccs3)c(C#N)cc12`: the z-score was -0.185.

`Cc1cccc(C(=O)O/N=C2\CCSc3ccc(C)cc32)c1`: the z-score is -0.368.

For `CCOC(=O)/C=C1\SCC(=O)N1CC(=O)NC(c1ccccc1)c1ccccc1`, the z-score was -0.519.

On to `Cc1cccc(C)c1OC(=O)CSc1nnc(-c2ccccc2O)o1`, for which the z-score came to 0.0686.

Turning to `O=C(O)c1cc(NCc2ccc3c(c2)OCO3)ccc1N1CCOCC1`, the z-score was 0.643.

For `COc1ccc(OC)c(C2/C(=C(/O)c3ccccc3)C(=O)C(=O)N2Cc2ccco2)c1` (configuration not stated), the z-score is -0.483.

As to `Cc1ccc(OCCCNCCO)c(Br)c1`, the z-score was -0.432.

Regarding `COc1ccc(CN2CC(C(=O)NCc3cccc(OC)c3)CC2=O)cc1` (configuration not stated), the z-score is -0.676.

`O=C(CN1C(=O)C2C3C=CC(C3)C2C1=O)NCc1ccco1` (configuration not stated): the z-score amounted to 0.028.

Compound `Cc1ccc(S(=O)(=O)N(Cc2cc3cc4c(cc3[nH]c2=O)OCCO4)CC2CCCO2)cc1` (configuration not stated) displayed a z-score of 0.011.

For the compound `CCOc1ccccc1CNC(=O)c1nn(CC)cc1[N+](=O)[O-]`, the z-score is -0.235.

`O=C(NCc1ccco1)c1sc2cc(Cl)ccc2c1Cl` registered a z-score of 0.323.

As for `COC(=O)c1sc(-c2ccccc2)cc1NC(=O)c1ccccc1`, the z-score was -0.662.

As for `COc1ccc(C(=O)N2CCN(C(C)=O)CC2)cc1S(=O)(=O)NCc1ccc(Cl)cc1`, the z-score is -0.145.

As for `CC(NC(=O)C1CC=CCC1C(=O)O)C1CC2CCC1C2` (configuration not stated), the z-score is active: -4.35.

Compound `CCOC(=O)C(C(=O)NCc1ccc(C)cc1)c1ncc(C(F)(F)F)cc1Cl` (configuration not stated) had a z-score of 1.62.

The compound `CC(=O)Nc1ccc(NC(=O)CSc2nccn2Cc2ccccc2)cc1` had a z-score of 2.89.

Take `CCN(C(=O)COC(=O)c1c2c(nc3ccccc13)/C(=C/c1ccccc1)CC(C)C2)C1CCS(=O)(=O)C1` (configuration not stated): the z-score was -0.169.

As to `COc1cccc(C(=O)CN(C(=O)c2ccc(Cl)c(Cl)c2)N2C(=O)c3ccccc3C2=O)c1`, the z-score is -0.134.

On to `Cc1nc2c(Br)c3nc(C(F)(F)F)[nH]c3c(Br)c2[nH]1`, for which the z-score is -0.486.

For `COC(=O)c1ccc(COc2ccc3c(C)c(C)c(=O)oc3c2C)o1`, the z-score is 1.08.

On to `CCN(C(=O)CSc1ncccc1C(=O)OC(C)C)c1cccc(C)c1`, for which the z-score is -0.441.

`O=C(/C=C/NNC(=O)c1cccc(Br)c1)c1cccc(Br)c1` displayed a z-score of 1.86.

As to `COc1ccc(/C=C/C(=O)NC(=S)NNC(=O)Cc2cccs2)cc1`, the z-score was 0.855.

`CC(=O)CSc1nnc(-c2ccc3c(c2)OCO3)o1` came in with a z-score of 0.167.

As for `CCCN1CCN(C(=O)c2cc3c(s2)-c2ccccc2S(=O)(=O)C3)CC1`, the z-score is -0.756.

As for `CN(C)/C=C1\N=C(c2ccc(Cl)cc2Cl)OC1=O`, the z-score was -0.162.

In the case of `CC(Oc1ccccc1)c1ccnc2nc(/N=C/N(C)C)nn12` (configuration not stated), the z-score was -0.241.

On to `CCOC(=O)N/N=C/c1ccc(F)cc1`, for which the z-score came out at 0.114.

For the compound `CCC(=O)Nc1ccc(-c2cc(-c3ccccc3)nc(-c3ccc(NC(=O)CC)cc3)n2)cc1`, the z-score was -0.865.

`CC(C)CNC(=O)c1cc2nc3c(c(C(F)(F)F)n2n1)CCc1ccccc1-3`: the z-score amounted to 0.631.

For the compound `CC(=O)OCc1c(COC(C)=O)[n+](=O)c2ccccc2n1[O-]`, the z-score was -0.00176.

Take `Cc1sc2c(c1C)CN(C(C)(C)C)CN2C(=O)c1ccccc1`: the z-score is 0.313.

In turn, `CC1=CC(C)(C)Nc2ccc(OC(=O)C(Cc3ccccc3)N3C(=O)C4CCCCC4C3=O)cc21` (configuration not stated) gave a z-score of 2.63.

As to `COc1ccc(S(=O)(=O)N2CCOCC2)cc1NC(=O)CN1CCC(Cc2ccccc2)CC1`, the z-score is -0.243.

`NC(=O)C1CCN(C2OC(=O)c3ccccc32)CC1` (configuration not stated) had a z-score of 0.341.

Turning to `Cc1cc(NC(=O)CCCS(=O)(=O)c2nc(-c3cccs3)cc(C(F)(F)F)n2)no1`, the z-score was -0.741.

Take `O=C(CN1CCN(C(c2ccccc2)c2ccccc2)CC1)N1CCOCC1`: the z-score is -0.28.

Take `O=C(CN1C(=O)c2ccccc2C1=O)N1CCN(c2ccccc2)CC1`: the z-score came to 0.109.

`CC(C)c1ccc(/C=N/NC(=O)C(=O)NCCCN2CCOCC2)cc1`: the z-score is -0.0531.

Take `COC(=O)c1nn(-c2ccccc2)c(=O)cc1Oc1ccccc1`: the z-score is -0.0974.

On to `CC(NCc1ccc2c(c1)OCO2)C(=O)NC1CCCc2ccccc21` (configuration not stated), for which the z-score is -0.369.

Take `COC(=O)COc1ccc2oc(=O)cc(C)c2c1`: the z-score was found to be 0.0285.

For `CCC(C)NC(=O)C(NS(=O)(=O)c1cccc2nsnc12)c1ccccc1` (configuration not stated), the z-score was -0.00978.

The compound `Cc1cccc(C2=N/C(=C\c3cccnc3)C(=O)O2)c1` came in with a z-score of 0.682.

The compound `COc1ccc(N(CC(=O)NC2CCCCC2)S(=O)(=O)c2cccnc2)cc1` came in with a z-score of 0.453.

For the compound `O=C(Nc1ccc(-c2nc3ccccc3[nH]2)cc1)c1cccc(N2C(=O)CCC2=O)c1`, the z-score is -0.255.

Turning to `O=C(/C(=C\c1ccccc1)c1nc2ccccc2[nH]1)c1ccc(Cl)cc1`, the z-score is -0.37.

As to `C=CCN=C1CC(C)(C)CC(=O)/C1=C(/O)CCC(=O)OC`, the z-score was determined as 0.22.

Regarding `O=C(Nc1cccc(N2CCCC2)c1)c1cccs1`, the z-score is -0.165.

With `C=CCNc1cnn(CC(C)=O)c(=O)c1Br`, the z-score is -0.0909.

Consider `O=C(/C=C/c1ccco1)Nc1cccc2cccnc12`, for which the z-score is -0.155.

With `COC(=O)C1=C(N)n2c(s/c(=C\c3cccnc3)c2=O)=C(C(=O)OC)C1c1cccnc1` (configuration not stated), the z-score was -0.382.

With `C/C=C/Cn1c(SCc2ccccc2)nc2c1c(=O)[nH]c(=O)n2C`, the z-score is -0.907.

Compound `Cc1ccc(NC(=S)N2CCCC(c3nc4ccc(C)cc4[nH]3)C2)c(C)c1` (configuration not stated) showed a z-score of 0.124.

For the compound `CC1CC(C)CN(S(=O)(=O)c2ccc(C(=O)N3CCN(c4ccccc4)CC3)cc2)C1` (configuration not stated), the z-score was -0.71.

With `O=C(C1CCC1)N1CCC(c2nc3c(nnn3Cc3c(F)cccc3Cl)c(=O)[nH]2)CC1`, the z-score was -1.14.

As to `COc1ccc(CN2CC(C(=O)NCCN3CCOCC3)CC2=O)cc1` (configuration not stated), the z-score was -1.04.

Turning to `COc1ccc(C2=NO[C@@H]3C(=O)N(c4cccc(C)c4C)C(=O)[C@H]23)cc1OC`, the z-score is -0.245.

On to `CCC(C)(C)n1nnnc1C(c1cc2cc(C)cc(C)c2[nH]c1=O)N1CCN(Cc2ccc3c(c2)OCO3)CC1` (configuration not stated), for which the z-score is 0.932.

As to `CC(C)C(=O)NC(=S)N(Cc1ccccc1)Cc1ccccc1`, the z-score was active: 9.57.

As to `COC(=O)C(C)Sc1snnc1-c1ccccc1` (configuration not stated), the z-score is -1.65.
